Data as given in the supplement of paper PMC3334620.
Whole data set: some 33,000 sequences, median “E-score (-0.5 to 0.5)” near -0.053, cut for the highest 2% near 0.37. Some of the results follow.

Biological target: Hap1 (UniProt P0CE41)
Assay: PBM E-score (8-mer binding enrichment) (E-score (-0.5 to 0.5)); higher = stronger / more preferred TF binding; most listed sequences are background and not binding sites
Details: protein concentration: 200 nM; construct: GST-DNA-binding domain
Outline: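 Universal all-10-mer Agilent arrays, fresh or stripped once, were converted to double-stranded form by primer extension. GST-tagged yeast transcription factors from PURExpress in vitro transcription/translation, full-length or DNA-binding domain only, were applied at about 100-200 nM and detected with fluorescent anti-GST. After masliner normalisation, the Universal PBM Analysis Suite scored each ungapped eight-base word together with its reverse complement by E-score.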

Chain of UniProt P0CE41 (P0CE41 whole entry): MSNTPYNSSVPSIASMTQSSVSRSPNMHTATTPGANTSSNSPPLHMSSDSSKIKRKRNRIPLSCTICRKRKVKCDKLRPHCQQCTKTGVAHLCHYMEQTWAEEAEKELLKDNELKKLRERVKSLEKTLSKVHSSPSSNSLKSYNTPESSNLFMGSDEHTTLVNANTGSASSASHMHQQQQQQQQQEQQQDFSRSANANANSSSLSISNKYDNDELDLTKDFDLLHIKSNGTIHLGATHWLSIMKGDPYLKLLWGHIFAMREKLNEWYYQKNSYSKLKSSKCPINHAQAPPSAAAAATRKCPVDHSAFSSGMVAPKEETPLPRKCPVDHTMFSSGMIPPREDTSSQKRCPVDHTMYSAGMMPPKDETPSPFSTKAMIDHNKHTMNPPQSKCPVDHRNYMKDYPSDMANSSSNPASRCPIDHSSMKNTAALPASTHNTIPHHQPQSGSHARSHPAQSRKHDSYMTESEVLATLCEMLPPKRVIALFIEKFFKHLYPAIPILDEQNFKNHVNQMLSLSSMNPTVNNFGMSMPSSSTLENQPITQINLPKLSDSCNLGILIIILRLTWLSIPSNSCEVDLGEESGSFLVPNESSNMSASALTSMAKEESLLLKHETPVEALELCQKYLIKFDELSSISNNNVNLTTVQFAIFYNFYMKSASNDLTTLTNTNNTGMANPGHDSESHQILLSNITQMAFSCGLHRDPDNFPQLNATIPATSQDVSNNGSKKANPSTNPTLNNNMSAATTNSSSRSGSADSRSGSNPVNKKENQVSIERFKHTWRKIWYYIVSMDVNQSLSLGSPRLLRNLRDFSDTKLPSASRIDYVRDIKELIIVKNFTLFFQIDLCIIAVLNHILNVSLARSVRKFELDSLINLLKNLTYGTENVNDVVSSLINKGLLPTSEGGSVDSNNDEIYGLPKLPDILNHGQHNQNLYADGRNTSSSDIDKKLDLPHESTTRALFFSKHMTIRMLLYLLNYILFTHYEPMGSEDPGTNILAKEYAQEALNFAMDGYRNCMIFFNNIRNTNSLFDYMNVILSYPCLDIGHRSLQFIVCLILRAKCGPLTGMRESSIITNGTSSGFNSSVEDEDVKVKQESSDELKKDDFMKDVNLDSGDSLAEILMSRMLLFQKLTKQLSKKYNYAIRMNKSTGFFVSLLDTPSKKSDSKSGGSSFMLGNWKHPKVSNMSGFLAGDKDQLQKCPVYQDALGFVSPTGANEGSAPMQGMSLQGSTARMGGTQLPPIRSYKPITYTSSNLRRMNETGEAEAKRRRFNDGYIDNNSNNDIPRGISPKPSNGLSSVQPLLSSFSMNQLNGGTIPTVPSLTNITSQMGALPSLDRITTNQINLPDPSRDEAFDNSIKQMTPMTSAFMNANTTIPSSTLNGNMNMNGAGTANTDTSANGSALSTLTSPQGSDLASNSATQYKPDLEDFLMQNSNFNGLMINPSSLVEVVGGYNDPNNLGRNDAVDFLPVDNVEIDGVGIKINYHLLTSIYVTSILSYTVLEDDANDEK

Sequence | PBM E-score
GACACTAC | -0.0201
CTAGAATA | 0.0393
ATACTCGC | 0.134
GGGCTCAA | 0.0323
CAGAGGTA | -0.18
GATGCCGC | 0.0389
GGATCCAC | 0.059
CGAGCTCG | 0.129
GGCGTAGA | 0.0367
CTAACACC | 0.222
AATTCGCA | 0.112
ACTAGCGA | 0.105
AAACGGCA | 0.0142
ATACATCA | -0.18
GTCTTCAA | -0.259
CCTTCAGC | -0.304
CCGCGGAG | 0.352
CAGACATA | 0.0368
GATCAGGC | -0.173
ATTGAGTG | -0.061
AGTCTAGA | -0.272
TCCAAGGA | 0.0272
GATCGACA | -0.113
CCATTTGA | 0.027
CGTGCTAA | -0.274

Sequence | PBM E-score
AATCTTGT | 0.136
GTCGCAGA | 0.0404
ACCCTCCC | 0.181
TACTCCAA | -0.22
AACGAAGG | -0.308
TCTTCGCA | 0.0202
CTTCAGTC | -0.193
ACGTCAAC | -0.105
ACAGCTCC | 0.0968
GATGTTCC | 0.13
TACAATCA | -0.0187
AAATGTAG | -0.107
ATTCGTAC | 0.00708
AAGAGATA | -0.23
ATCGCAAA | 0.0318
GAGCACTA | -0.132
AAGATGGA | -0.114
GCTGCCCA | -0.108
AGCGTTGG | -0.274
GCTAATCA | 0.00778
GCGCTGGA | 0.111
TATTGCCA | -0.057
CGAAGTCA | 0.0132
ATTCGCTC | 0.0145
CCCGCGAA | 0.078

Sequence | PBM E-score
ATCGTAAG | -0.0613
ACTGCCGC | 0.112
AGTAAAAC | -0.0962
CGTGCATC | -0.0421
GAAGATCC | 0.127
CAGCTAGA | -0.264
AACGTTTG | -0.112
CATAGAAC | 0.0727
AGATAACA | -0.0493
GTGCTCTA | -0.115
ATGCAGAC | -0.285
TCAGGCAA | -0.197
CCCATGAA | -0.244
CTTCCAAA | -0.316
CGGAGCTC | 0.313
AACAAATG | -0.0316
CCTTTTAC | -0.0625
ACTTAGAT | -0.0138
GGACATAC | 0.349
CAATGCTA | -0.105
CGTTTGCA | -0.124
CCGCTCGC | 0.199
CAAGGAAC | 0.0861
AGGCCAAA | 0.0141
CTGTCGAA | -0.268

Sequence | PBM E-score
AGTGATAA | -0.168
AAGATTCG | 0.0952
GCTTAAGA | 0.0415
AAAGCAAG | 0.139
AGCTAACG | -0.023
AAGCGCTG | 0.105
CTCAAGGA | -0.0192
TCAGCCGA | 0.329
ACCCATAG | -0.264
AAGACCTC | -0.211
GCAGGACA | 0.00272
CCTCGCTA | -0.149
CTGTTACA | -0.145
ATATAAGA | 0.0615
ACCCGTTA | 0.318
AAATAAGA | 0.0739
ATAAAACA | -0.0261
ACCTCGTA | -0.0139
CGCCACAC | -0.0353
CCATAGCA | -0.192
AACCCGGC | 0.333
AGTCGGGA | 0.171
GACTGCGC | -0.075
TAGGGGCA | -0.204
CGGATGAA | 0.346

Sequence | PBM E-score
CTTTAAAC | -0.18
GCTCTTCA | -0.126
CATACTCA | -0.102
AAGTCTGG | -0.331
ATCATATG | -0.0707
CAGCAGCA | -0.256
AGTCTGCA | -0.108
GATAACGA | -0.00119
GACTCGCA | -0.0589
ATGTAGAG | -0.227
ATCCATCG | -0.0149
CCCTCTAG | -0.211
CACAATGA | -0.237
CAAAATTG | -0.191
CCCTCTGC | -0.329
CCGATACA | 0.43
CTCAAACC | -0.00282
AATGGCGG | 0.205
ATGCTGCG | -0.111
CACAGTAG | -0.236
CCATCTTA | -0.0246
CGAGGGAG | -0.0047
ACTAGTTG | -0.221
GTACAGAC | -0.132
AATCGGTC | 0.295

Sequence | PBM E-score
ACTAAGTA | -0.0777
AAGGGCGC | 0.0613
CCGGCCAC | 0.315
AGGTATGC | 0.0142
CATCTACC | -0.0272
ATAGTGCG | -0.00342
AACACGGA | 0.283
CGGACTTA | 0.488
GACAGGTC | -0.128
GCAGGCGA | -0.197
CAGCGTTA | -0.124
TAAATAAA | -0.085
GGCTGACC | -0.0824
ATAGGCGA | 0.0101
GATAACCA | 0.0257
CGGTCTAC | 0.213
AACAATCG | 0.0305
CGTTAGTA | -0.0714
CGACGAGC | -0.14
ACTGGGGC | -0.159
CCTTAAGC | -0.0205
TCGGAGAA | 0.405
TCGAGCAA | -0.0728
AGGACATG | -0.181
GGCACGCA | 0.0214

Sequence | PBM E-score
CCCCTAGC | -0.21
ACAGTAAC | -0.179
ACGCGGGG | 0.293
CACTGCTA | -0.22
AACTAGTG | -0.0758
CGTCCGAG | 0.401
CAATCCTA | -0.0593
AGTCGGGG | 0.246
AGACCTAG | -0.15
CTCTGCGA | -0.2
AAATACGT | -0.134
CTCGTTAC | -0.292
TATGTCGA | -0.0806
AAGGCTCC | -0.112
CCGACCCC | 0.0403
CTTGTCTA | -0.0104
AACGAACG | 0.0701
CTATCACC | 0.195
AGATCCCA | -0.0155
AGACGCTC | -0.161
CTTCTTGA | -0.144
CTTTACAA | -0.00459
